Source: publication PMC12815959 (Nature Communications, 2025)

Target: LRBA PH-Myc (human LRBA PH-BEACH domain with a Myc tag) (human, UniProt P50851 2076-2489)
Test: co-IP

B1: WT CTLA4-Flag (receptor)
chain: not shown
B1: binds.
